The source of these data is the RNAGym collection of RNA variant scans (doi:10.7554/elife.90254).

The source gives no read counts; variants with many changes may rest on few reads.

B1: LINE1-full (parent)
chain: UACGUAGGUGGUUUUCCCCUGAUAGUGCUAAGGGGGCCUGGAAGUUUGGACUGGGCAGAGCUCAACACAGCGUGGCAAAGUGGCUGUGGCUAGACUGCCUCUCUGGAUUCCUCGUCACUCAGCAGGGCAUCUCUGAGAGAAAUGCC

This data set covers variants of B1. The data set is described as follows: self-cleavage, relative activity (ratio to wild type); higher = more cleavage; in vitro, sequencing; the parent is a self-cleaving ribozyme.
For C28G U100C U132A, the self-cleavage was found to be 1.91.

As to U26C U39A A59G A65G G88A C120U A136G, the self-cleavage turned out to be 0.

C28U C95U A138G: the self-cleavage worked out at 0.31.

U26C C116U A142U: the self-cleavage worked out at 1.22.

Consider U26A A79G C128U A136G A141G, for which the self-cleavage turned out to be 1.41.

Consider U26C U52A G58U A94U, for which the self-cleavage came to 0.06.

Regarding U26C C63U U132C, the self-cleavage turned out to be 0.57.

For G27C U47C A142G, the self-cleavage was 0.56.

In the case of G25A U52C A65G A69G, the self-cleavage turned out to be 0.29.

In the case of U26G A69G U96C, the self-cleavage was 0.

Take G27A U73C U143A: the self-cleavage came out at 1.46.

Turning to U26C A65U A67U U73G A78G, the self-cleavage worked out at 0.08.

Turning to U26C A107G C111A, the self-cleavage was found to be 1.08.

As for C28U U46A U73C U87A U108C, the self-cleavage was found to be 0.09.

Regarding U26A G33U U52C U102A, the self-cleavage was 1.15.

For the variant G27U U112C A124U, the self-cleavage came to 0.62.

Consider U26C A43U U45C A57G C113U, for which the self-cleavage came to 0.11.

In the case of U26C A31U U46C A79U, the self-cleavage was 2.55.

Turning to G25U A31U U45C, the self-cleavage was 1.4.

For the variant U26C G54U G80U, the self-cleavage turned out to be 0.89.

On to U29A A65G U87A C103U U104A, for which the self-cleavage turned out to be 0.05.

For the variant U26C A67G U102A, the self-cleavage was 0.9.

Consider G25A A42G A79G A92C C99U, for which the self-cleavage amounted to 0.17.

Consider G27A A43G U81C, for which the self-cleavage amounted to 0.9.

Take G27A U85A U96C U130C: the self-cleavage stood at 0.06.

U26A G40U A57G U62C U87C: the self-cleavage was found to be 0.1.

In the case of U26C U81C A124U U143G, the self-cleavage was determined as 2.55.

Turning to U26C U46C U62C G86A, the self-cleavage was found to be 0.26.

In the case of G27A U46C U47C U62C A79G, the self-cleavage stood at 0.35.

For C28G U108C A138G, the self-cleavage came out at 1.67.

Take U26C A42U C113A: the self-cleavage came to 1.29.

Turning to C28U U109C U119A U132C, the self-cleavage turned out to be 1.09.

Consider U26A U85A C101A U119C, for which the self-cleavage was determined as 0.1.

Take U26C G36A U81C A140U: the self-cleavage stood at 1.1.

Turning to U29C A64C A78G A141G, the self-cleavage was determined as 0.33.

As for U26C A50G A79U G105A, the self-cleavage stood at 0.91.

As for U26C A78G U102C, the self-cleavage was 0.

For the variant U26A C56U U73C, the self-cleavage is 0.18.

Take G25U A79G U130C A138G: the self-cleavage is 1.13.

Regarding C28A U29C A142G, the self-cleavage is 1.02.

Take U26A A43G U73C U130A: the self-cleavage turned out to be 0.45.

As for U26A U39C U102C, the self-cleavage was 0.59.

U26C A42G U52C A142G: the self-cleavage turned out to be 2.63.

With U26C A30G U39C, the self-cleavage worked out at 0.32.

With U26C A65U U112C A121G A129U, the self-cleavage is 0.41.

For the variant G25A U62A A65G U104A, the self-cleavage was 0.

Consider C28G U46C U47A A69G G72A U108C, for which the self-cleavage amounted to 0.42.

Turning to U26C C38A A124U, the self-cleavage is 0.82.

Take U26A U81C A94U U104C: the self-cleavage was found to be 1.15.

For U26C A42G A142G, the self-cleavage was 1.12.

For A24U U52C U62C A67U G80U, the self-cleavage worked out at 0.08.

As for U26G A79G U96A, the self-cleavage amounted to 0.14.

U26A A64G G105A: the self-cleavage amounted to 0.18.

Regarding C28U U62C C68U C84U A124G, the self-cleavage came out at 0.

Take U26A G48A A69U A141G: the self-cleavage is 0.

For U29A C63A U85A C98G, the self-cleavage was determined as 0.03.

Take G27A C37U U87C: the self-cleavage was determined as 0.06.

On to U29A U39C U46A A69U A78G, for which the self-cleavage turned out to be 0.

U26C U73A A107G: the self-cleavage was determined as 2.18.

With U26A A57G U62C U96A, the self-cleavage came out at 0.

Take G25A A77G U81A U112C: the self-cleavage turned out to be 2.54.

Regarding C28U A59U A78G A92U, the self-cleavage turned out to be 0.

Consider U26C C37U A57G U85G, for which the self-cleavage worked out at 0.04.

Consider U26C G32A A50G U108C, for which the self-cleavage is 1.27.

Regarding U26A U62A U119A, the self-cleavage amounted to 0.03.

Consider U26C A57G U119C A140G, for which the self-cleavage turned out to be 2.3.

With U29A G35U U112C A121G U134A, the self-cleavage was 1.02.

For the variant U26C U130C A142G U143C, the self-cleavage stood at 0.66.

Take U26A U47A C61A A65C A67U U102C: the self-cleavage came out at 0.02.

In the case of U26C A57U A138G, the self-cleavage came out at 0.

For the variant G25U U47A G55A U96C A141G, the self-cleavage was 0.03.

U26C A43U G55U A64C U73A A138G: the self-cleavage was 0.05.

On to U29A U46C G55A U96C U102C, for which the self-cleavage is 0.1.

For the variant U26C G60A A77G, the self-cleavage amounted to 0.07.

As for G25A G105A U119A, the self-cleavage was 1.31.

With U26C U29A U73A A107G A138U, the self-cleavage was found to be 2.47.

U26A A79G A124U: the self-cleavage was determined as 0.27.

Consider G27A G97A A129G, for which the self-cleavage was 0.08.

With U29C A30G G40A A124U A138G A140G A142G, the self-cleavage stood at 1.93.

Turning to U26A U46C A129U, the self-cleavage is 1.29.

Turning to U26C U47C A121G, the self-cleavage is 0.54.

In the case of C28U A43G U46C G54A A94U A136G, the self-cleavage turned out to be 0.

For the variant U29A A42G U112A, the self-cleavage is 1.12.

For the variant U26A A43G U52A U81A U102C U134C, the self-cleavage is 1.99.
